Measurements published in publication PMC12748135.
No constants are given. Whether binding was seen depends on the method and setting. For some of these results: In cells and extracts the contact can be indirect. Some entries that bind do so weakly or less than the wild type. For some of these results: Tags and fused reporters may be left off the sequences shown.

Sequences of proteins named here, by UniProt entry; tags and fusion partners are left off. A change or cut given only in a name is not applied to a line headed by its entry.
UniProt P53350: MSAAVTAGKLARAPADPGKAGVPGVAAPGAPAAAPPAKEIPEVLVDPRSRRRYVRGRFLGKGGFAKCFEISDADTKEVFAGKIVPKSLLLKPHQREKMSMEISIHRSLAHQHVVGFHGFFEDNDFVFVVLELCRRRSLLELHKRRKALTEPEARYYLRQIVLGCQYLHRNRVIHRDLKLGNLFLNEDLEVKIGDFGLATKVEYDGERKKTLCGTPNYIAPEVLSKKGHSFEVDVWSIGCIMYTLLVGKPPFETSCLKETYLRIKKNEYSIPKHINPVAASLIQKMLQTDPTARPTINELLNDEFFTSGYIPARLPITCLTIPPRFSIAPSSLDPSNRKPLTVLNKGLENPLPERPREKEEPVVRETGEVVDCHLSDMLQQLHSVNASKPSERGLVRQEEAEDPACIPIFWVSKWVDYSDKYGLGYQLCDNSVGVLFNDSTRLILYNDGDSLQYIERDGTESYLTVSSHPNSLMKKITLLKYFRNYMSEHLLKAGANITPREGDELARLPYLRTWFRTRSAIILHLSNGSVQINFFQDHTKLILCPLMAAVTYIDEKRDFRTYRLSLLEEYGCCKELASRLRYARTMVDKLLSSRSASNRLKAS

B1: Flag-TRIM47 mutant 81-409 aa (domain or fragment, UniProt Q96LD4 81-409)
chain: QGSGPGSGPGPAPALAPEPSAPSALPSVPEPSAPCAPEPWPAGEEPVRCDACPEGAALPAALSCLSCLASFCPAHLGPHERSPALRGHRLVPPLRRLEESLCPRHLRPLERYCRAERVCLCEACAAQEHRGHELVPLEQERALQEAEQSKVLSAVEDRMDELGAGIAQSRRTVALIKSAAVAERERVSRLFADAAAALQGFQTQVLGFIEEGEAAMLGRSQGDLRRQEEQRSRLSRARQNLSQVPEADSVSFLQELLALRLALEDGCGPGPGPPRELSFTKSSQAVRAVRDMLAVACVNQWEQLRGPGGNEDGPQKLDSEADAEPQDLE
B2: Flag-TRIM47 mutant 177-409 aa (domain or fragment, UniProt Q96LD4 177-409)
chain: LEESLCPRHLRPLERYCRAERVCLCEACAAQEHRGHELVPLEQERALQEAEQSKVLSAVEDRMDELGAGIAQSRRTVALIKSAAVAERERVSRLFADAAAALQGFQTQVLGFIEEGEAAMLGRSQGDLRRQEEQRSRLSRARQNLSQVPEADSVSFLQELLALRLALEDGCGPGPGPPRELSFTKSSQAVRAVRDMLAVACVNQWEQLRGPGGNEDGPQKLDSEADAEPQDLE
B3: Flag-TRIM47 mutant 410-638 aa (domain or fragment, UniProt Q96LD4 410-638)
chain: STNLLESEAPRDYFLKFAYIVDLDSDTADKFLQLFGTKGVKRVLCPINYPLSPTRFTHCEQVLGEGALDRGTYYWEVEIIEGWVSMGVMAEDFSPQEPYDRGRLGRNAHSCCLQWNGRSFSVWFHGLEAPLPHPFSPTVGVCLEYADRALAFYAVRDGKMSLLRRLKASRPRRGGIPASPIDPFQSRLDSHFAGLFTHRLKPAFFLESVDAHLQIGPLKKSCISVLKRR

How the values were obtained:
GST-TRIM47 (human) = GST-TRIM47 (human) (UniProt Q96LD4); test: pull-down; purified GST-TRIM47 or GST incubated overnight at 4 °C with lysates of transfected HEK293T cells (Flag-PLK1, GFP-PLK1 or GFP-PLK1 deletion mutants); glutathione agarose; immunoblot; only the target purified
[1] = biological target: N-terminal GFP-TRIM47 truncation mutant (1-80 aa) (human) (UniProt Q96LD4); test: co-IP; HEK293T cells co-transfected with Flag-PLK1 and GFP-TRIM47 (WT or 1-80 aa); 0.5% Lubrol-Px lysis buffer (50 mM KCl, 2 mM CaCl2, 20% glycerol, 50 mM Tris-HCl pH 7.4), protein G beads, 4 °C; immunoblot
[2] = biological target: GFP-TRIM47 (full-length, WT) (human) (UniProt Q96LD4); test: as above
[3] = biological target: GFP-PLK1 (full-length) (human) (UniProt P53350); test: co-IP; HEK293T cells co-transfected with GFP-PLK1 and Flag-TRIM47 or its deletion mutants, lysed after 24 h; immunoprecipitation with an anti-GFP antibody; immunoblot
[4] = biological target: TRIM47 (tripartite motif-containing 47), full-length, in pGBKT7 as bait (human) (UniProt Q96LD4); test: two-hybrid; yeast two-hybrid system screen combined with bioinformatic analysis (Figure S4); library and constructs not described
[5] = biological target: TRIM47 (tripartite motif-containing 47), full-length, in pGBKT7 as bait (human) (UniProt Q96LD4); test: two-hybrid; TRIM47 in pGBKT7 as bait, PLK1 in pGADT7 as prey, Y2HGold yeast; blue colonies on QDO/X/A (SD/-Ade/-His/-Leu/-Trp/X-α-Gal) plates count as interaction
[6] = biological target: TRIM47, endogenous in Hep3B cells (human (endogenous in Hep3B)) (UniProt Q96LD4); test: co-IP; endogenous proteins in native (primitive) Hep3B cells; 0.5% Lubrol-Px lysis buffer, protein G beads, 4 °C; immunoblot

Row | Molecule | binding (GST-TRIM47 (human)) | binding [3] | further results
1 | Flag-PLK1 (from UniProt P53350 1-603) | binds | – | binding [1]: binds; binding [2]: binds
2 | Flag-TRIM47 (full-length) (from UniProt Q96LD4 1-638) | – | binds | –
3 | Flag-TRIM47 mutant 1-409 aa (from UniProt Q96LD4 1-409) (domain or fragment) | – | binds | –
4 | GFP-PLK1 (full-length) (from UniProt P53350 1-603) | binds | – | –
5 | GFP-PLK1 protein kinase fragment (1-310 aa) (from UniProt P53350 1-310) (domain or fragment) | binds | – | –
6 | PLK1 (polo-like kinase 1), in pGADT7 as prey (from UniProt P53350 1-603) | – | – | binding [4]: binds; binding [5]: binds
7 | PLK1, endogenous in Hep3B cells (from UniProt P53350 1-603) | – | – | binding [6]: binds
8 | B1 | – | no binding | –
9 | B2 | – | no binding | –
10 | B3 | – | no binding | –
